Assay results taken from PubChem BioAssay (NCI).
Several values for one entry are separate records, joined by “and”; a condition that tells them apart may be missing. Equal entries are not always repeated.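 Assay format: 96-well plates, 48-hour exposure. The concentration for 50% growth inhibition is given as GI50. Definition used: TGI = concentration required for complete inhibition of growth.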

Test system: NCI-H322M lung
Test: growth of human tumour cells (NCI), 48 h

First: Cc1ccc2c(=O)cc(-c3ccsc3)[nH]c2n1
Second: Nc1nc(Nc2ccccc2)sc1C(=O)c1cccs1
The TGI of the first is higher: over 100 µM for the first, 27.9 µM for the second.

`COc1cc(/C=C\c2cccnc2)cc(OC)c1OC` and `COc1ccc(-c2c(-c3cc(OC)c(OC)c(OC)c3)noc2N)cc1` cannot be ordered by TGI: over 100 µM for the first, over 100 µM for the second.

`COc1cccc2c1c(C1=C(c3cn(C)c4ccccc34)C(=O)NC1=O)cn2C` and `COc1ccc2[nH]cc(CCNC(=O)[C@](O)(Cc3cn(C)c4ccccc34)[C@@]3(O)OCC(O)C3O)c2c1` (some centres not stated) cannot be ordered by TGI: over 25 µM for the first, over 100 µM for the second.

`CCCCCCCCCCCCOC1C(C(CC(=O)N2CCN(c3cccc(C(F)(F)F)c3)CC2)NS(=O)(=O)c2cc(Cl)cc(Cl)c2)OC2OC(C)(C)OC21` (configuration not stated) and `CCCCCCCCCCCCCCCCOP(=O)(O)OP(=O)(O)OCC1OC(n2ccc(N)nc2=O)C(O)C1O` (configuration not stated) cannot be ordered by TGI: over 100 µM for the first, over 100 µM for the second.

`c1ccc2c(c1)[nH]c1c2nc2ncccn21` and `COc1ccc(NC(=S)N/N=C(\C)c2nc3ncccc3[nH]2)cc1` cannot be ordered by TGI: over 100 µM for the first, over 100 µM for the second.

`CC(=O)c1cccc(NC(=O)C(=O)Nn2c(N)nnc2N)c1` and `COC(=O)/C=C/c1cn(C(C)=O)c2ccc(Br)cc12` cannot be ordered by TGI: over 100 µM for the first, over 100 µM for the second.

`CCOP(=O)(OCC)C(C(=O)OC)C(=O)C(=O)Nc1c(C)cc(Br)cc1C` (configuration not stated) and `CCOC(=O)/C(=C(/C)NCC(C)C)c1cc(O)c(O)c2c(C)cc(=O)[nH]c12` cannot be ordered by TGI: over 100 µM for the first, over 100 µM for the second.

Going from `N#CS.N=C=S.N=C=S.[Cu+2].[NH2-].[NH2-].[NH2-].[NH2-].c1ccc2ncccc2c1` to `COc1ccc(-n2c(N)c(C#N)c(C#N)c2-c2ccccc2)cc1`, the TGI rises from 50 µM to over 100 µM.

First: C=C1C(=O)OC2CC1CCC1(C)OC1CCC(C)=CCCC2(C)O (configuration not stated)
Second: CCC1C(=O)C(O)[C@H]2[C@@H]3C(O)CC4=CC(=O)CC[C@]4(C)[C@H]3CC[C@]12C (some centres not stated)
The TGI of the first is lower: 24 µM for the first, over 50 µM for the second.

`CCOc1ccccc1NC(=O)CCc1n[nH]c(=S)o1` and `COc1ccccc1/C=C1\CCC(CCN2CCOCC2)C1=O` (configuration not stated) cannot be ordered by TGI: over 100 µM for the first, over 100 µM for the second.

Going from `COc1ccc(OC)c(CC(C)N)c1` (configuration not stated) to `COc1ccc2nc3ccccc3c(NCCCN(C)CCCl)c2c1`, the TGI falls from over 100 µM to 2.52 µM.

Compared with `CN1CC[C@]2(c3cccc(O)c3)CC(=O)/C(=C/c3ccc(Cl)c(Cl)c3)[C@@H]1C2`, `COc1cc(/C=C2\C(=O)N(C(=O)c3ccc(NC(C)=O)cc3)N=C2C)ccc1O` is higher in TGI: 3.22 µM for the first, over 100 µM for the second.

Compared with `CCCC(=O)O.CCCC(=O)O.CCCC(=O)O.CCCC(=O)O.[Rh].[Rh]`, `CNC(=O)CN(C)C(=O)CCC(=O)N(C)C` is higher in TGI: 2.52 µM for the first, over 100 µM for the second.

`COC(=O)c1ccc(Cl)cc1NC(=O)C1CCCCC1` and `O=c1c2cc([N+](=O)[O-])ccc2nc2n1CCCCC2` cannot be ordered by TGI: over 100 µM for the first, over 100 µM for the second.

`Cc1ccc(C)c2c1CC(Cc1ccccc1C(=O)O)C2=O` (configuration not stated) and `COc1ccc(OC(C(=O)O)c2ccccc2)c2c1CCCC2=O` (configuration not stated) cannot be ordered by TGI: over 100 µM for the first, over 100 µM for the second.

`CCOC(=O)C(NCc1cccc(C(F)(F)F)c1)(NC(=O)CC)C(F)(F)F` (configuration not stated) and `Cc1ncsc1-c1ccc(CNC(=O)[C@@H]2C[C@@H](O)CN2C(=O)[C@@H](NC(=O)C2(C#N)CC2)C(C)(C)C)cc1` cannot be ordered by TGI: over 100 µM for the first, over 100 µM for the second.

First: O=c1c2cc([N+](=O)[O-])ccc2n2n1CCCC2
Second: C[C@]12CC[C@H](O)CC1=CC[C@@H]1[C@@H]2CC[C@]2(C)C(=N/O)/C(=C/c3ccc([N+](=O)[O-])cc3)C[C@@H]12
The TGI of the first is higher: over 100 µM for the first, 15.3 µM for the second.

`C=C(CN1CCN(c2cccc(C(F)(F)F)n2)CC1)c1ccc(C(=S)Nc2ccccc2N)cc1` and `Cc1nn(C)cc1P(=S)(c1ccccc1)c1ccccc1` cannot be ordered by TGI: over 100 µM for the first, over 100 µM for the second.

First: CCCCC(=O)OC[n+]1ccc2c(C)c3[nH]c4ccccc4c3c(C)c2c1
Second: CCC[CH2][Sn]1([CH2]CCC)[O]C(=O)c2ccc(C)cc2[O]1
The TGI of the first is 1.6-fold lower: 1.73 µM for the first, 2.82 µM for the second.

Going from `O=[N+]([O-])c1cc(Cl)cc2cc(Br)cnc12` to `O=C1C(Cl)C(c2cc3cc(Br)ccc3nc2Cl)N1c1ccc(Cl)cc1` (configuration not stated), the TGI falls from over 31.6 µM to 11.5 µM.

`CN(C)Cc1cc(C=O)cc(CN(C)C)c1O` and `N#Cc1nc(C(CO)N(Cc2ccccc2)C(=O)O)oc1N` (configuration not stated) cannot be ordered by TGI: over 100 µM for the first, over 100 µM for the second.

`O=C1CC(O)(c2ccccc2)C(c2ccccc2)=C1c1ccccc1` (configuration not stated) and `O=C(CCC(C(=O)c1ccccc1)c1ccccc1)c1ccccc1` (configuration not stated) cannot be ordered by TGI: over 100 µM for the first, over 100 µM for the second.

Going from `CC(=O)OCC(OC(C)=O)C(OC(C)=O)C(OC(C)=O)C(C=NN(C(C)=O)S(=O)(=O)c1ccc(/C=C2\NC(=O)NC2=O)cc1)OC(C)=O` (configuration not stated) to `CC(=O)[C@@]1(O)[C@H](C)C[C@H]2[C@@H]3C=C(C)C4=Cc5c(cnn5-c5ccccc5)C[C@]4(C)[C@H]3[C@@H](O)C[C@@]21C`, the TGI falls from over 100 µM to 15.2 µM.

With `CCCCCCCC(=O)OCC1OC(OC)C(NC(=O)N(CCCl)N=O)C(O)C1O` (configuration not stated) the TGI was 74.5 µM.

Going from `COc1cccc2c1c(C1=C(c3cn(C)c4ccccc34)C(=O)NC1=O)cn2C` to `COc1ccc(-c2c(-c3cc(OC)c(OC)c(OC)c3)noc2N)cc1`, the GI50 falls from over 25 µM to 0.0684 µM.

Going from `CCCCCCCCCCCCOC1C(C(CC(=O)N2CCN(c3cccc(C(F)(F)F)c3)CC2)NS(=O)(=O)c2cc(Cl)cc(Cl)c2)OC2OC(C)(C)OC21` (configuration not stated) to `C=C(CN1CCN(c2cccc(C(F)(F)F)n2)CC1)c1ccc(C(=S)Nc2ccccc2N)cc1`, the GI50 falls from over 100 µM to 5.75 µM.

First: N#CS.N=C=S.N=C=S.[Cu+2].[NH2-].[NH2-].[NH2-].[NH2-].c1ccc2ncccc2c1
Second: S=C(N/N=C(/c1ccccc1)c1ccccn1)N1CCCCCC1
The GI50 of the first is higher: 22.4 µM for the first, under 0.001 µM for the second.

First: CCCC(=O)O.CCCC(=O)O.CCCC(=O)O.CCCC(=O)O.[Rh].[Rh]
Second: CCC[CH2][Sn]1([CH2]CCC)[O]C(=O)c2ccc(C)cc2[O]1
The GI50 of the first is 1.8-fold lower: 0.807 µM for the first, 1.48 µM for the second.

Going from `O=C(CCC(C(=O)c1ccccc1)c1ccccc1)c1ccccc1` (configuration not stated) to `CC(=O)[C@@]1(O)[C@H](C)C[C@H]2[C@@H]3C=C(C)C4=Cc5c(cnn5-c5ccccc5)C[C@]4(C)[C@H]3[C@@H](O)C[C@@]21C`, the GI50 falls from 53.6 µM to 3.73 µM (14-fold).

First: COC(=O)/C=C/c1cn(C(C)=O)c2ccc(Br)cc12
Second: Cc1ncsc1-c1ccc(CNC(=O)[C@@H]2C[C@@H](O)CN2C(=O)[C@@H](NC(=O)C2(C#N)CC2)C(C)(C)C)cc1
The GI50 of the first is lower: 34.1 µM for the first, over 100 µM for the second.

With `CCOC(=O)/C(=C(/C)NCC(C)C)c1cc(O)c(O)c2c(C)cc(=O)[nH]c12` the GI50 was 4.31 µM.

With `CCc1cc2c(cc1N1CCC(N3CCOCC3)CC1)C(C)(C)c1[nH]c3cc(C#N)ccc3c1C2=O` the GI50 was 2.35 µM and 1.91 µM and 2.22 µM.

In the case of `CCc1cc2c(cc1N1CCC(N3CCOCC3)CC1)C(C)(C)c1[nH]c3cc(C#N)ccc3c1C2=O`, the TGI is reported as 10.4 µM and 5.43 µM and 7.25 µM.
